Results from the supplement of paper PMC4967469.
Lines with a small IC50 respond at low doses; where the fit passes the top or lowest dose, that dose stands as a limit. AUC sums up the same curve from the lowest dose to the 256-fold higher top dose; the more sensitive the line, the further below 1. An inferred top dose was calculated from the reported fits.

compound: CCOc1cc2ncc(C#N)c(Nc3ccc(F)c(Cl)c3)c2cc1NC(=O)/C=C/CN(C)C [EKB-569]; experiment: Viability of human cancer cell lines after 72 h of drug (GDSC screen); details: top dose inferred
Experimental: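 Human cancer cell lines in 384-well plates, medium with 10% serum, drug for 72 h over a 256-fold dose range (nine 2-fold or five 4-fold steps up to the top dose). Adherent lines were fixed and stained with the nucleic acid dye Syto60, suspension lines read with resazurin; signal relative to control wells, capped at 0 and 100%. One two-parameter sigmoid per drug and line, fitted in a mixed model over all curves with the slope shared within a line.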

Cell Line	AUC	IC50 [nM]
NCI-H1436 (small cell lung carcinoma, suspension, top dose 2.5 µM)	0.976	> 2500
PL-21 (acute myeloid leukaemia, suspension, top dose 2.5 µM)	0.755	974
TE-15 (oesophagus, suspension, top dose 2.5 µM)	0.381	70.3
COLO-792 (melanoma, adherent, top dose 2.5 µM)	0.883	> 2500
RCC-FG2 (kidney, adherent, top dose 2.5 µM)	0.863	> 2500
SW900 (lung squamous cell carcinoma, adherent, top dose 2.5 µM)	0.949	> 2500
BV-173 (chronic myeloid leukaemia, suspension, top dose 2.5 µM)	0.791	982
KNS-81-FD (glioma, adherent, top dose 2.5 µM)	0.963	> 2500
ASH-3 (thyroid, adherent, top dose 2.5 µM)	0.983	> 2500
G-MEL (melanoma, adherent, top dose 2.5 µM)	0.876	2420
COR-L88 (small cell lung carcinoma, adherent, top dose 2.5 µM)	0.976	> 2500
NB12 (neuroblastoma, adherent, top dose 2.5 µM)	0.87	> 2500
OV-90 (ovary, adherent, top dose 2.5 µM)	0.968	> 2500
H2461 (mesothelioma, adherent, top dose 2.5 µM)	0.983	> 2500
BICR78 (head and neck, adherent, top dose 2.5 µM)	0.933	> 2500
LS-180 (large intestine, adherent, top dose 2.5 µM)	0.875	> 2500
SW872 (soft tissue, adherent, top dose 2.5 µM)	0.978	> 2500
TE-12 (oesophagus, suspension, top dose 2.5 µM)	0.622	366
OVTOKO (ovary, adherent, top dose 2.5 µM)	0.826	2110
HO-1-u-1 (head and neck, adherent, top dose 2.5 µM)	0.96	> 2500

Cell Line	AUC	IC50 [nM]
KMOE-2 (acute myeloid leukaemia, suspension, top dose 2.5 µM)	0.861	1760
SF126 (glioma, adherent, top dose 2.5 µM)	0.963	> 2500
OS-RC-2 (kidney, adherent, top dose 2.5 µM)	0.867	> 2500
MDA-MB-361 (breast, adherent, top dose 2.5 µM)	0.796	1160
UACC-812 (breast, adherent, top dose 2.5 µM)	0.965	> 2500
KP-N-YN (neuroblastoma, adherent, top dose 2.5 µM)	0.986	> 2500
SK-MEL-24 (melanoma, adherent, top dose 2.5 µM)	0.983	> 2500
NCI-H1048 (small cell lung carcinoma, adherent, top dose 2.5 µM)	0.924	> 2500
HuP-T3 (pancreas, adherent, top dose 2.5 µM)	0.836	2220
LCLC-97TM1 (large cell lung carcinoma, adherent, top dose 2.5 µM)	0.815	1550
HSC-2 (head and neck, adherent, top dose 2.5 µM)	0.95	> 2500
HuH-7 (liver, adherent, top dose 2.5 µM)	0.987	> 2500
RCC-JW (kidney, adherent, top dose 2.5 µM)	0.728	708
BB65-RCC (kidney, adherent, top dose 2.5 µM)	0.938	> 2500
EM-2 (chronic myeloid leukaemia, suspension, top dose 2.5 µM)	0.837	2000
NCI-H196 (small cell lung carcinoma, adherent, top dose 2.5 µM)	0.947	> 2500
HCC-56 (large intestine, adherent, top dose 2.5 µM)	0.815	1420
ST486 (Burkitt lymphoma, suspension, top dose 2.5 µM)	0.823	1260
MFE-280 (endometrium, adherent, top dose 2.5 µM)	0.798	1580
KON (head and neck, adherent, top dose 2.5 µM)	0.983	> 2500

Cell Line	AUC	IC50 [nM]
ChaGo-K-1 (non-small cell lung carcinoma, adherent, top dose 2.5 µM)	0.964	> 2500
PANC-04-03 (pancreas, adherent, top dose 2.5 µM)	0.975	> 2500
C3A (liver, adherent, top dose 2.5 µM)	0.988	> 2500
TE-4 (oesophagus, adherent, top dose 2.5 µM)	0.614	321
RL95-2 (endometrium, adherent, top dose 2.5 µM)	0.973	> 2500
SK-MEL-1 (melanoma, suspension, top dose 2.5 µM)	0.981	> 2500
RMG-I (ovary, adherent, top dose 2.5 µM)	0.781	1220
SK-MM-2 (myeloma, suspension, top dose 2.5 µM)	0.987	> 2500
EoL-1-cell (haematopoietic neoplasm, suspension, top dose 2.5 µM)	0.895	2420
LB373-MEL-D (melanoma, adherent, top dose 2.5 µM)	0.984	> 2500
PSN1 (pancreas, adherent, top dose 2.5 µM)	0.919	> 2500
SW1116 (large intestine, adherent, top dose 2.5 µM)	0.986	> 2500
Ca9-22 (head and neck, adherent, top dose 2.5 µM)	0.834	1470
PF-382 (T-cell lymphoblastic leukaemia, suspension, top dose 20 µM)	0.208	200
CPC-N (small cell lung carcinoma, suspension, top dose 2.5 µM)	0.906	> 2500
LU-134-A (small cell lung carcinoma, suspension, top dose 2.5 µM)	0.968	> 2500
OVK-18 (ovary, adherent, top dose 2.5 µM)	0.963	> 2500
KARPAS-422 (B-cell lymphoma, suspension, top dose 2.5 µM)	0.89	> 2500
DOK (head and neck, adherent, top dose 2.5 µM)	0.794	1890
